According to PubChem BioAssay AID504374 (National Center for Advancing Translational Sciences (NCATS), 2011):
Among all 1,500 compounds or so, about 100 (6.7%) were called active. Another 7% or so got no clear call; they are omitted. Calls follow the shape of the dose curve; as a rule, active = well fitted inhibition curve with a large enough effect; inconclusive = small, poorly fitted or top-dose-only effect, or effect the other way; inactive = flat fitted curve, though single readings scatter. This is one part of the list.

Molecular target: Runt-related transcription factor 1 (Homo sapiens) + Core-binding factor subunit beta (Homo sapiens) (UniProt Q01196+Q13951)
Test: qHTS Assay for Compounds Blocking the Interaction Between CBF-beta and RUNX1 for the Treatment of Acute Myeloid Leukemia: Hit Validation; also: nearly all actives have a fitted effect of over 60% in size
Details: AlphaScreen CBFb-His/RUNX1-biotin binding; series mostly up to 59.8 µM; activity, negative = inhibition: at the top concentration
Outline: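 Compounds were added to a premixed CBF-beta-His/RUNX1-biotin complex (30 nM each, 20 min) for 15 min. Nickel and streptavidin AlphaScreen beads followed for 90 min at room temperature, with emission at 440 nm […].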
% is scaled to controls: 0 for no effect and ±100 for the full control effect; potency is read from the fitted curve at half-maximal effect.

UniProt Q01196, sequence (Q01196 whole entry, looked up): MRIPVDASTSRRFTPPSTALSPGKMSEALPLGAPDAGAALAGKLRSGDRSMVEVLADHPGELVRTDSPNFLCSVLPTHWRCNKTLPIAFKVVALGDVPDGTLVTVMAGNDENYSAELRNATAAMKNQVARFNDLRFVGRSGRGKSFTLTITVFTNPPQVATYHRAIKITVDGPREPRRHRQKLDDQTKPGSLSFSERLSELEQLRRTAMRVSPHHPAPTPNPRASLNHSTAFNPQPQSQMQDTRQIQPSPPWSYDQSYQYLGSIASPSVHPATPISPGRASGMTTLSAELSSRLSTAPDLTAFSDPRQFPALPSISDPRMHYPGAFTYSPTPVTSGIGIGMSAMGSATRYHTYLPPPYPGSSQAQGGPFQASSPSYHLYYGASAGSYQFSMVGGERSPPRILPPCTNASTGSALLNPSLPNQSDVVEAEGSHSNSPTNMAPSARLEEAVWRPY
UniProt Q01196, sequence (Q13951 whole entry, looked up): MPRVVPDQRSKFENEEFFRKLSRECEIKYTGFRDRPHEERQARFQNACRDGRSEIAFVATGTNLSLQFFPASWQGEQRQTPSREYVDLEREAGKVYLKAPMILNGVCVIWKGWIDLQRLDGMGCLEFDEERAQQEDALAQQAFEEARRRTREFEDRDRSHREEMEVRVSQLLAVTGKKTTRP

activity, negative = inhibition, inactive:
Cc1cccc(C)c1NC(=S)N1CCOCC1 0.441%
CCOC(=O)c1nnn2c1nc(N1CCOCC1)c1ccccc12 -1.49%
COc1cccc(C2=NN(C(=O)CCCC(=O)O)C(c3cccs3)C2)c1 (stereo unspecified) -2.11%
CN(C)C=Nc1ccccc1C1C=NNC1=O (stereo unspecified) -6.95%
Cc1cc(NC(=O)c2ccc3c(c2)C(=O)N(CC(C)C)C3=O)no1 -2.51%
Cc1cc(NC(=O)Nc2cc(Cl)ccc2C)no1 7.12%
COC(=O)c1cnc(N2CCOCC2)nc1C(F)(F)F 10.6%
CN(C)S(=O)(=O)c1ccc(Cl)c(NC(=O)CN2CCN(Cc3ccc4c(c3)OCO4)CC2)c1 -5.65%
C/C(=N\O)c1c(O)cc(-c2ccccc2)n(-c2ccccc2)c1=O -1.85%
CCOC(=O)c1nnsc1-c1ccc(-c2snnc2C(=O)OCC)cc1 -0.231%
C/C(=N\O)C1CC(CC(=O)O)C1(C)C (stereo unspecified) -1.84%
COc1ccc(NS(=O)(=O)c2ccc3c(c2)CCO3)cc1 -11.6%
O=C(CSC(=S)N1CCOCC1)Nc1ncc2c(n1)CCCC2=O -6.22%
Cc1ccc2nc(-c3ccc(N)cc3)sc2c1 0.903%
CCCSc1nnc(NC(=O)Nc2ccc(C)cc2)s1 3.1%
c1ccc2sc(SCSc3nc4ccccc4s3)nc2c1 -3.42%
C/C(Cc1ccccc1)=N\NC(=O)CNC(=O)Cc1ccc(Cl)cc1 -1.04%
O=C(Nc1ccccc1)NC1CCCCNC1=O (stereo unspecified) 1.23%
CC(C)C(=O)Nc1c(-c2ccccc2)c(=O)c2ccccc2n1C -0.529%
CCOC(=O)CCCC(=O)N1CCOCCOCCOCC1 16.6%
CCN(CCS(=O)(=O)c1ccc(Cl)cc1)C(=O)Nc1ccccc1 -4.65%
O=C(NC(=S)Nc1ccccc1N1CCCC1)c1ccco1 -2.74%
CN(C)c1ccc(/C=N/N2CCN(c3ccccn3)CC2)cc1 -9.06%
Brc1ccc(C2=Nn3c(Cn4nnc5ccccc54)nnc3SC2)cc1 -1.04%
COc1ccccc1C1=NOC(COC(=O)c2ccc([N+](=O)[O-])cc2)C1 (stereo unspecified) -4.56%
Cc1cc(C)c2c(N)c(-c3nnc(SCc4ccc(Cl)cc4)n3C)sc2n1 2.85%
CC1SCC(=NOCc2ccccc2)CS1 (stereo unspecified) -8.26%
CN(C)/C=C1\N=C(c2cccnc2Oc2ccc(Cl)cc2)OC1=O 6.79%
CC(C)(C)SCCNC(=O)/C=C/c1ccccc1 -3.56%
O=S(=O)(Nc1ccccc1)c1ccc2c(c1)CCO2 -0.675%
Cc1[nH]c2ccccc2c1-c1csc(NC(=O)CSCC(=O)O)n1 -7.85%
COC(=O)c1ccc(S(=O)(=O)N(C2CCCCC2)C2CCCCC2)n1C -5.96%
C[C@H](NC(=O)OC(C)(C)C)C(=O)N/N=C/c1ccc2nccnc2c1 -2.06%
Oc1ccccc1-c1nc(NCc2cccnc2)c2ccccc2n1 12.7%
CCOC(=O)c1sc(NC(=O)CSC(=S)N2CCOCC2)nc1C -8.75%
CCNC(=S)Nc1ccc(NC(=O)c2ccccc2O)cc1 -7.2%
Cc1nn2c(NCCCn3ccnc3)cc(C(C)C)nc2c1-c1ccccc1 -18.6%
CN(C)C(=O)Nc1ccccc1 -3.42%
Cc1cc(-n2cnc(-c3cn(C)nc3C)n2)no1 4.98%
O=C(Nc1ccc2ccccc2c1)c1ccc(Cl)cc1Cl 2.02%
CCOC(=O)Nc1c2ccccc2nc2ccccc12 1.38%
O=C1COc2cccnc2N1 -3.87%
O=C(O)CSCC(=O)N1CCCN(c2nc3ccc(Cl)cc3s2)CC1 -0.955%
C/C(=N\NC1=NCCN1)c1ccc(Cl)cc1 -3.04%
CC(=O)NS(=O)(=O)c1ccc(NC(=O)c2cc3c(=O)n4ccccc4nc3s2)cc1 -4.09%
COc1ccccc1N1CC(C)(C)C(=O)N(C(=O)c2ccc(C)cc2)C1=S -0.678%
Cn1nc(-c2ccccc2)cc1NS(=O)(=O)c1ccccc1 -0.754%
CCCCc1c(C)nc(N2CCCC2)[nH]c1=O -5.95%
O=[N+]([O-])c1cccnc1Oc1ccccc1F 2.26%
CC1CC(=O)Nc2ccccc2N1S(=O)(=O)c1cccc(F)c1 (stereo unspecified) -3.76%
CCOc1ccc(OCc2ccc(C(=O)NN)o2)cc1 -7.39%
CCOc1ccc(-n2c(C)cc(/C=N/Nc3nc(C)cc(=O)[nH]3)c2C)cc1 1.92%
Cc1c(C(=O)/C=C/N(C)C)nnn1-c1ccc(F)c(Cl)c1 -5%
CCOC(=O)Cc1c[nH]c(=S)[nH]c1=O -0.0013%
COc1ccc(CCn2cnc3c([nH]c4ccccc43)c2=O)cc1 -4.1%
NC(=O)/C(=C\c1ccncc1)c1cccc2ccccc12 -2.14%
Cn1ccc(=Nc2ccc(NC(=O)c3ccc(N=c4ccn(C)c5ccc([N+](=O)[O-])cc45)cc3)cc2)cc1 -0.289%
COC(=O)[C@@H](NC(=O)NC1CCCCC1C)C(C)C (stereo partly specified) -1.3%
Clc1nc(Cl)nc(-c2cn(-c3ccccc3)c3ccccc23)n1 -5.14%
CC1=CC2=NC(=O)/C(=C/c3coc4ccccc4c3=O)C(=N)N2O1 4.47%
Cc1cc(C)c(OCC(=O)N(Cc2ccc(N(C)C)cc2)C2CCS(=O)(=O)C2)c(C)c1 (stereo unspecified) -20.1%
Cc1ccc(-c2cc(-c3ccco3)c3c(N)c(C(=O)NN)oc3n2)cc1 11.2%
CCCCCCC(=O)N(O)C1CC(=O)N(c2ccc(Cl)cc2)C1=O (stereo unspecified) -3.6%
S=c1[nH]ccn1-c1ccccc1Cl -10.1%
CCOc1ccc(/C(C)=N/NC(=O)Cn2nc([N+](=O)[O-])cc2C)cc1 -2.13%
COC(=O)c1scc(C)c1NS(=O)(=O)c1ccc(NC(C)=O)cc1 -8.25%
CC1SCC(=NOCc2c(Cl)cccc2Cl)CS1 (stereo unspecified) -2.32%
Cc1ccc(C#N)c(SCc2ccccc2F)n1 4.1%
CCCCn1cc([N+](=O)[O-])nc1C -5.88%
CCCn1nc(NC(=O)c2ccco2)c2cc3cc(C)ccc3nc21 -1.98%
S=C(Nc1ccccc1)Nc1nccs1 -2.37%
CC(C)(C)NC(=O)NCCc1ccccc1 -1.62%
CC(=O)c1c(COC(=O)c2ccccc2Cl)nc2ccccc2[n+]1[O-] -3.37%
CC(C)c1cc(C(C)C)n2nc(N)nc2n1 -16.5%
Cc1nc(-c2ccc(S(=O)(=O)N3CCCN(CCc4ccccc4)CC3)s2)cs1 -8.4%
O=C(c1ccc(-c2ccccc2)cc1)c1ccc([N+](=O)[O-])cc1 -13%
Cc1[nH]c(=S)c(C#N)c(C)c1Cc1ccc(Cl)cc1Cl -3.7%
COC(=O)c1ccc(CN2CCCCC2)cc1 -5.13%
CCOC(=O)c1nnn2c1nc(N1CCN(c3ccccc3)CC1)c1ccccc12 0.298%
Cn1c(SCC(=O)N/N=C/c2ccncc2)nc2ccccc21 -13.8%
O=C1CN2CCC1C/C2=C\c1ccnc2c(Cl)cccc12 (stereo unspecified) 0.762%
CCOC(=O)c1sc(NNC(=O)c2ccc(C)cc2)nc1C -9.91%
CC1=CC(=O)CC(C)(C)C1(O)/C=C/C(C)=C/C(=O)O (stereo unspecified) -3.77%
COc1cc(/C=N/Nc2ccc(S(N)(=O)=O)cc2[N+](=O)[O-])cc(OC)c1O -20.2%
C/C(=C\C(=O)Nc1cscc1C)C(=O)O 0.983%
O=C(Nc1ccccc1)N1CCCC1c1cccs1 (stereo unspecified) -4.49%
Cc1cccnc1NC(=O)c1csnn1 -0.56%
CCCCCCOc1ccc(N2C(=O)CC(NCc3ccc(S(N)(=O)=O)cc3)C2=O)cc1 (stereo unspecified) 0.678%
CCCCc1cc(=O)oc2cc(OCc3nn[nH]n3)ccc12 -6.88%
COc1ccc(CCNC(=S)NC(=O)c2cccc(Cl)c2)cc1OC -24%
O=C(/C=C/c1cccnc1)/C=C/c1cccnc1 -5.39%
COc1ccc(Cn2c(O)c(C=Nc3ccccc3C(=O)O)c3ccccc3c2=O)cc1 -11.9%
Cc1c(C(=O)c2ccccc2)oc2ccc3ccccc3c12 5.2%
COc1ccc(-n2c(-c3ccc(Cl)cc3)c[n+]3c2CCCCC3)cc1 -1.28%
COc1cc(NCc2ccccc2O)c2ncccc2c1 -15.9%
COC(=O)CNC(=O)CSc1ccccn1 6.43%
COc1ccc(N/N=C(\C#N)C(=N)N2CCCCC2)cc1 -24.9%
CC(C)(C)S(=O)(=O)/C(C#N)=C/Nc1ccccn1 -2.32%
N#CCN1CCC2(O)CCCCC2C1c1ccc2c(c1)OCO2 (stereo unspecified) -3.82%
N#Cc1cccc(C#N)c1Oc1ccc(S(=O)(=O)Nc2ccc(Cl)cc2)cc1 -0.103%
C=C(C)c1cccc(C(C)(C)NC(=O)N2CCN(c3ccccc3)CC2)c1 4.16%
COC(=O)C/C(N)=C(\C#N)C(=O)OC 7.94%
O=C(NC(=S)Nc1ccccc1N1CCCC1)c1cccs1 -6.14%
Fc1ccccc1/C=N/n1c(-c2cccnc2)n[nH]c1=S -0.276%
COc1ccc2nc(-c3ccc(Cl)cc3)cc(C(=O)O)c2c1 -1.23%
O=S(=O)(NCc1ccccn1)c1cc(OCC(F)(F)F)ccc1OCC(F)(F)F -5.21%
CN(C(=O)Nc1ccc(C(C)(C)C)cc1)C1CCCCC1 3.09%
COc1ccc(CCNC(=S)NC(=O)c2c(-c3ccccc3Cl)noc2C)cc1OC -11.4%
O=[N+]([O-])c1ccc2c(c1)S(=O)c1ccccc1-2 (stereo unspecified) -4.82%
CCCNC(=S)Nc1ccccc1 -3.03%
c1ccc(N2CCOCCOCCOCCOCC2)cc1 -1.73%
CCN(CC)S(=O)(=O)c1cccc(N2CC(O)=C(c3ccccc3)C2=N)c1 -0.813%
CCOC(=O)/C(C#N)=C/Nc1cc(F)ccc1C -3.99%
Cc1ccc(NC(=S)Nc2ccccn2)cc1C -4.63%
Cc1c(O)nc2ccccn2c1=O 1.38%
CSC(=Nc1ccccc1)Nc1ccccc1 -0.945%

Potency, active:
O=C(NC(=S)NNC(=O)c1cnccn1)c1ccc(F)cc1 2 µM
NC(=S)N/N=C/c1ncc(C(F)(F)F)cc1Cl 25.1 µM
Cc1cc(O)c(C=O)c2c1C(=O)Oc1c(COC(=O)/C=C/C(=O)O)c(O)c(C(=O)O)c(C)c1O2 11.2 µM
c1cnc2c(c1)ccc1cccnc12 1.12 µM
CCCC(=O)NC(c1cccs1)c1cc([N+](=O)[O-])c2cccnc2c1O (stereo unspecified) 3.98 µM
